We go through 11 compounds from the antibiotic and cytotoxicity screens of Wong et al. (2023).

This is one part of the list.

The test system of this test is S. aureus RN4220. The test is described as follows: growth inhibition call (relative growth <= 0.2). To be noted: 50 µM.
With `C[C@H](CO)N1C[C@H](C)[C@@H](CN(C)Cc2ccncc2)Oc2c(NC(=O)Nc3ccc(C(F)(F)F)cc3)cccc2C1=O`, the growth inhibition call is “inactive”. As for `Cc1noc(C)c1NC(=O)Nc1ccc2c(c1)C(=O)N([C@@H](C)CO)C[C@H](C)[C@H](CN(C)S(=O)(=O)c1cn(C)cn1)O2`, the growth inhibition call was “inactive”. As for `NC(CC(=O)O)C(=O)O` (stereo unspecified), the entry is “inactive”; as for `Cc1cc(C(=O)Nc2cccc3c2O[C@@H](CN(C)Cc2ccncc2)[C@H](C)CN([C@@H](C)CO)C3=O)n(C)n1`, “inactive”. As for `Cc1ccc(S(=O)(=O)Nc2ccc3c(c2)C(=O)N([C@@H](C)CO)C[C@@H](C)[C@@H](CN(C)Cc2ccc(C(=O)O)cc2)OCCCC[C@@H](C)O3)cc1`, the entry is “inactive”; as for `N[C@@H](Cc1ccc2nonc2c1)C(=O)O`, “inactive”; as for `CC(C)NC(=O)N(C)C[C@H]1Oc2c(NC(=O)C3CCOCC3)cccc2C(=O)N([C@H](C)CO)C[C@H]1C`, “inactive”. Next, `C[C@@H]1CCCCO[C@H](CN(C)C(=O)Nc2ccc(F)cc2)[C@H](C)CN([C@@H](C)CO)C(=O)c2cc(NC(=O)CCCN(C)C)ccc2O1`: “inactive”; `COc1ccc(NC(=O)Nc2ccc3c(c2)C(=O)N([C@H](C)CO)C[C@H](C)[C@H](CN(C)S(=O)(=O)c2cn(C)cn2)O3)cc1`: “inactive”; `Cc1ccc(S(=O)(=O)N(C)C[C@H]2Oc3ccc(NC(=O)CCN4CCOCC4)cc3CC(=O)N([C@H](C)CO)C[C@H]2C)cc1`: “inactive”. Take `C[C@H]1CN([C@@H](C)CO)C(=O)Cc2cc(NC(=O)Nc3ccc(F)cc3)ccc2O[C@H]1CN(C)C(=O)Nc1cccc2ccccc12`: the growth inhibition call was “inactive”.
